Out of some 48,000 compounds screened, about 450 (0.94%) were called active. Another 19% or so got no clear call; they are omitted. Calls come from the whole dose curve; as a rule, active = well fitted inhibition curve with a large enough effect; inconclusive = small, poorly fitted or top-dose-only effect; inactive = no such curve, though single readings can be large or run the other way. Some of the results follow.

The nature of the assay: Primary qHTS for Identification of Small Molecule Inhibitors of Huntingtin Promoter Activity. Note: nearly all actives have a fitted effect of over 50% in size. The settings on record: HEK293 HTT promoter firefly luciferase reporter (activity 0% = vehicle and -100% = no light), 24 h; series mostly up to 57.5 µM; activity change, negative = inhibition: at the top concentration. In short, it runs like this: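 Firefly luciferase readout (Dual-Glo, 10 min RT) after 24 h, 37 °C compound exposure (final up to 57.5 uM) of HEK293 reporter cells cultured 24 h beforehand; PTC124 at 50 uM final as control inhibitor; activity scaled vehicle 0%, zero RLU -100%.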
In the case of `Cc1ccc(CNC(=O)c2nc(SCc3ccc(F)cc3)ncc2Cl)cc1`, the “activity change, negative = inhibition” value was inactive: -6.22%. The figure for `COc1ccc(S(=O)(=O)n2nc(C)c(S(=O)(=O)N3CCCCCC3)c2C)cc1` is inactive: -7.93%; for `Cc1cc(C)n2c(Nc3ccc4c(c3)OCCO4)c(-c3ccc(Cl)cc3)nc2n1` it is inactive: 4.97%; for `COC(=O)c1cc(S(=O)(=O)N2CCN(c3ccc(OC)cc3)CC2)c[nH]1` it is inactive: -23.5%. Take `CCCN1CCN(C(=O)Cn2c(-c3cccs3)cc3ccccc32)CC1`: the “activity change, negative = inhibition” value is inactive: -19.6%. For the compound `Cc1ccc(NC(=O)c2cnc(N3CCCCC3)c3ccccc23)c(C)c1`, the “activity change, negative = inhibition” value was inactive: 1.18%.

For `COCCCNC(=O)C1CCN(C(=O)c2cnn(-c3ccccc3)c2-n2cccc2)CC1`, the “activity change, negative = inhibition” value is inactive: -10.9%. With `CCCCOc1ccc(C2=NC(c3cccs3)=Nc3ccc(CC)cc3N2)cc1` the figure was inactive: -8.39%; with `CC(C)CC(=O)Nc1nc2nc(-c3ccccc3)cc(=O)n2[nH]1`, inactive: -20.3%. The figure for `CCOC(=O)c1ccc(O)c(O)c1` is inactive: 7.33%.

Consider `Cc1ccc(N2C(=O)NC(NS(=O)(=O)c3ccccc3)(C(F)(F)F)C2=O)cc1C` (stereo not given), for which the “activity change, negative = inhibition” value is inactive: -17.5%. For `COc1ccc(CNC(=O)CCCn2nc(C)c3sc4ccccc4c3c2=O)cc1OC`, the “activity change, negative = inhibition” value is inactive: -4.98%. On to `CCOc1ccccc1CNC(=O)c1ccc(N2Cc3ccccc3Oc3ncccc32)s1`, for which the “activity change, negative = inhibition” value is inactive: -31.7%. Consider `Cc1cccc(NC(=O)N2CCN(C(=O)c3nsc4ccccc34)CC2)c1C`, for which the “activity change, negative = inhibition” value was inactive: -3.53%.

Regarding `Cc1ccc2c(CC(=O)Nc3ccc(S(=O)(=O)N4CCCCC4C)cc3)coc2c1` (stereo not given), the “activity change, negative = inhibition” value is inactive: -28.2%. Consider `Cc1ccc(CNC(=O)c2cccn2-c2nnc(N3CCCC3)s2)cc1`, for which the “activity change, negative = inhibition” value was inactive: -19.2%. On to `COc1cccc(NC(=O)CN2C(=O)CSc3ccc(S(=O)(=O)N4CCCC4)cc32)c1`, for which the “activity change, negative = inhibition” value was inactive: -22.5%. With `Clc1ccc2c(c1)-c1c(cnc3cc(-c4ccccc4)nn13)CO2` the figure was inactive: -3.53%; with `COc1ccc(N2CCN(C(=O)c3cnn(-c4ccc(F)cc4)c3-n3cccc3)CC2)cc1`, inactive: -23.5%. As for `CCC1CCCCN1CCCNC(=O)CN1C(=O)c2cccnc2Oc2ccc(C)cc21` (stereo not given), the “activity change, negative = inhibition” value is inactive: -2.57%. For `O=C(Nc1ccc(Br)cc1F)C1CCN(c2nc3ccccc3[nH]2)CC1`, the “activity change, negative = inhibition” value is inactive: -3.46%.

In the case of `CCOc1ccc(C(=O)Nc2nnc(S(=O)(=O)Nc3ccccc3)s2)cc1`, the “activity change, negative = inhibition” value is inactive: 11.6%.

For the compound `CCOc1cc2[nH]c(=O)n(CCCCC(=O)N3CCN(c4ccc(OC)cc4)CC3)c(=O)c2cc1OCC`, the “activity change, negative = inhibition” value is inactive: -14.6%.

For the compound `CCOc1ccc2nc(N3CCC(C(=O)Nc4ccccc4CC)CC3)sc2c1`, the “activity change, negative = inhibition” value was inactive: 18%. Consider `CC(C)C(=O)N1c2nc(-c3ccco3)nn2C2(CCCCC2)[C@@H]2CCCC[C@@H]21`, for which the “activity change, negative = inhibition” value was inactive: -17%. With `Cc1oc2c(cc(NS(=O)(=O)c3ccc(C(C)C)cc3)c3ccccc32)c1C(=O)O` the figure was inactive: -13.8%; with `Cc1ccc(CCNc2ncnc3onc(-c4ccc(F)cc4)c23)cc1`, inactive: 3.88%; with `CCN(CC)C(=O)c1sc2c(c1C)c(=O)n(-c1ccc(Cl)c(Cl)c1)c(=O)n2Cc1cc(=O)n2ccccc2n1`, inactive: -11.5%. The figure for `COc1cccc(CNC(=O)Cn2c(=O)n3nc(-c4cccc(F)c4)nc3c3ccccc32)c1` is inactive: 0%.

With `COc1ccc(NC(=O)CCn2c(=O)c3cccn3c3cccnc32)cc1Cl`, the “activity change, negative = inhibition” value is inactive: 6.51%. In the case of `O=C(Cn1c(=O)n(CCCS(=O)(=O)C2CCCCC2)c(=O)c2ccccc21)Nc1ccccc1C(F)(F)F`, the “activity change, negative = inhibition” value is inactive: -5.03%. The figure for `Cc1ccc(S(=O)(=O)c2[nH]c(-c3ccccc3)nc2SCC(N)=O)cc1` is inactive: -7.34%. Consider `COC(=O)c1sc2ncccc2c1-n1c(C)ccc1C`, for which the “activity change, negative = inhibition” value was inactive: 10.3%. With `CCOC(=O)N1CCN(C(=O)c2c(C)nn(-c3cccc(C)c3)c2-n2cccc2)CC1` the figure was inactive: -29.5%. On to `COc1ccccc1CNS(=O)(=O)c1ccc2c(c1)CC(=O)N2C`, for which the “activity change, negative = inhibition” value is inactive: -12.4%. The figure for `O=C(NCc1ccc2c(c1)CCN2C(=O)c1ccccc1)c1ccccc1` is inactive: -2.47%.

As for `Cc1ccc2oc3c(c(=O)c2c1)C(c1ccccc1F)N(CCCN(C)C)C3=O` (stereo not given), the “activity change, negative = inhibition” value is inactive: 17.8%. The figure for `CCOc1ccccc1NC(=O)C(CC)Sc1nc2ncccc2[nH]1` (stereo not given) is inactive: -24.4%; for `COc1ccc(CNC(=O)C2=C(C)C(=O)OC23CCCCC3)cc1` it is inactive: -23.8%. With `COc1ccc(-n2ncc3c2ncn2nc(COc4ccc(Cl)cc4)nc32)cc1` the figure was inactive: -15.5%. On to `CCCSc1nnc2c(n1)OC(c1ccc(Br)s1)Nc1ccccc1-2` (stereo not given), for which the “activity change, negative = inhibition” value was inactive: 26.6%. On to `O=C(Cn1ncc2ccsc2c1=O)N1CCN(c2ccc(F)cc2)CC1`, for which the “activity change, negative = inhibition” value is inactive: -13.8%. With `CCC1CN(C(=O)Nc2cccc3c2CCCC3)c2cc(Cl)ccc2O1` (stereo not given) the figure was inactive: -19.9%; with `Cc1cc(C(F)F)n2nc(C(=O)Nc3ccc(C(C)C)cc3)nc2n1`, inactive: 1.54%; with `Cc1oc(-c2ccccc2Cl)nc1CS(=O)CC(=O)NCc1ccc(Cl)cc1` (stereo not given), inactive: -12.4%. `Cc1ccc(COc2ccc(-c3cc(C(F)(F)F)n4nc(C)cc4n3)cc2)cc1`: the “activity change, negative = inhibition” value is inactive: -0.108%. For the compound `Fc1ccc(-c2ccc(CNCCSc3nnnn3-c3ccccc3)o2)cc1`, the “activity change, negative = inhibition” value was inactive: -7.8%. The figure for `O=S(=O)(Nc1nc2ccccc2nc1Nc1ccccc1Br)c1ccccc1` is inactive: -9.12%; for `COc1ccc(CNS(=O)(=O)c2cc3c4c(c2)CCN4C(=O)CC3)cc1` it is inactive: -37.1%.

With `O=C(CSc1nc2c([nH]c3ccccc32)c(=O)n1-c1cccc(Cl)c1)NCC1CCCO1` (stereo not given), the “activity change, negative = inhibition” value was inactive: -16.3%.

Source of the values: PubChem BioAssay AID1508623 (National Center for Advancing Translational Sciences (NCATS), 2021).
